Reference: PubChem BioAssay AID463254 (National Center for Advancing Translational Sciences (NCATS), 2010)
The campaign covered roughly 330,000 compounds. About 40 (0.01%) were called active. This list was built around the results that the source calls inconclusive (neither active nor inactive); the mix of calls is not that of the screen. Calls come from the whole dose curve; as a rule, active = well fitted inhibition curve with a large enough effect; inconclusive = small, poorly fitted or top-dose-only effect, or effect the other way; inactive = flat fitted curve, though single readings scatter. A potency beside an inconclusive call is a rough fit, not a confirmed value.

target: Ubiquitin carboxyl-terminal hydrolase 2 (Homo sapiens) (UniProt O75604); test: qHTS Assay for Inhibitors of Ubiquitin-specific Protease USP2a Using CHOP2 as the Reporter; conditions: USP2 core, Ub-CHOP2 coupled fluorogenic reporter, 485/531; series mostly up to 38.3 µM
Sequence of UniProt O75604 (O75604 whole entry, looked up): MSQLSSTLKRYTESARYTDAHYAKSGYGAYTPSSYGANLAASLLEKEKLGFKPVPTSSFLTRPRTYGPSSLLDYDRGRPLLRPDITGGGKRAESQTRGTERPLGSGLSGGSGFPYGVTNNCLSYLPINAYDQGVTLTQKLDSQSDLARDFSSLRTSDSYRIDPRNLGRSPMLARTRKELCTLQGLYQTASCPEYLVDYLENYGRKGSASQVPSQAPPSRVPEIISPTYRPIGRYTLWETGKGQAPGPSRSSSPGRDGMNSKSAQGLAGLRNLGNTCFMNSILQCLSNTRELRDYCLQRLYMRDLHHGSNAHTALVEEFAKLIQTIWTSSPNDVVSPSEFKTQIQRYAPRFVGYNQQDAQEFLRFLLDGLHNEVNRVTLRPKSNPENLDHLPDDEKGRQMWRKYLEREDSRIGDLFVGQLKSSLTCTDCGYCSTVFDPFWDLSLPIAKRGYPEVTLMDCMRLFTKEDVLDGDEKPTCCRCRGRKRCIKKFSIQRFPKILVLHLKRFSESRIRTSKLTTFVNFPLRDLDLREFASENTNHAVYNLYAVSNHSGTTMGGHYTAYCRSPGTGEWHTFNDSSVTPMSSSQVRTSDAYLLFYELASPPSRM
Summary of the method: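 USP2 core (10nM final) preincubated 30min RT with compound in 20mM Tris-HCl pH 8.0, 2mM CaCl2, 2mM beta-mercaptoethanol, 0.05% CHAPS; 25nM Ub-CHOP2 plus 25nM reporter substrate added, fluorescence (Ex485/Em531) read after 60min.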
Potency is the fitted concentration of half-maximal effect; tags give direction and shape of the fitted curve or compound fluorescence and quenching.

| Compound | Potency |
| --- | --- |
| Cc1cc(C)n2cc(CSc3nnnn3-c3ccccc3C)nc2n1 | inconclusive: 22.4 µM [falling, single point] |
| O=C1/C(=C/c2cccc(F)c2)Oc2cc(O)ccc21 | inconclusive: 12.6 µM [fluorescent, single point] |
| Cc1oc(C(=O)Nc2ccc(O)cc2)cc1COc1ccccc1 | inactive |
| O=C(Nc1nc2c(s1)CN(Cc1ccccc1)CC2)c1cccc(S(=O)(=O)N2CCc3ccccc32)c1 | inconclusive: 20 µM [fluorescent, single point] |
| Cc1ccc(N=C2NC(=O)/C(=C/C=C/c3ccco3)S2)cc1C | inconclusive: 28.2 µM [falling, single point] |
| Cc1cccc(NC(=O)CSc2nnc(NC(=O)CN3CCCCC3)s2)c1 | inactive |
| N#Cc1ccc(Oc2ccc(-c3cnc4ccccc4n3)cc2)cc1C#N | inactive |
| CCOC(=O)C1=C(C)OC(N)=C(C#N)C1c1cc2ccccc2nc1N1CCCCC1 (stereo not drawn) | inactive |
| Cc1ccc2nc(/C(C#N)=C\c3ccc(N4CCOCC4)o3)[nH]c2c1 | inconclusive: 10 µM [fluorescent, partial curve] |
| Cc1cccc(NC(=O)NCc2ccc3c(c2)cc(C)n3C)c1 | inconclusive: 28.2 µM [falling, single point] |
| Cc1cc(O)c(C(=O)/C=C/c2ccc(Cl)cc2)c(=O)o1 | inconclusive: 28.2 µM [falling, single point] |
| O=C(OCC(=O)N1CCCCC1)c1cc2ccccc2cc1O | inconclusive: 28.2 µM [falling, single point] |
| CCOC(=O)Cc1csc(NC(=O)Nc2ccc(OC(F)(F)F)cc2)n1 | inactive |
| N#Cc1cc(C(=O)c2ccccc2O)cn(-c2nccs2)c1=O | inconclusive: 12.6 µM [fluorescent, partial curve] |
| Cc1ccc(O)c(CC(C)C)n1 | inconclusive: 22.4 µM [falling, single point] |
| CN(C)c1ccc(/C=N/N(CCO)C2=NS(=O)(=O)c3ccccc32)cc1 | inconclusive: 28.2 µM [fluorescent, single point] |
| C#CCOCCOCCOCCNc1nc(N2CCN(C(=O)CCCCCCCCCCNC(=O)[C@H](CO)n3cc(CCCCCN)nn3)CC2)nc(N2CCN(C(=O)CCCCCCCCCCNC(=O)[C@H](CCCN=C(N)N)n3cc(C[C@@H](C)CC)nn3)CC2)n1 | inconclusive: 20 µM [falling, single point] |
| O=C(Nc1nc(-c2ccco2)c(-c2ccco2)s1)C1CC(=O)N(c2ccc3c(c2)OCCO3)C1 (stereo not drawn) | inconclusive: 28.2 µM [falling, single point] |
